Measurements published in article PMC7819943, “Rice protein-binding microarrays: a tool to detect cis-acting elements near promoter regions in rice”.
The list shows a part of the results.

Molecular target: T1, OsWOX13 (Oryza sativa, UniProt Q5QMM3 1-267)
T1 sequence: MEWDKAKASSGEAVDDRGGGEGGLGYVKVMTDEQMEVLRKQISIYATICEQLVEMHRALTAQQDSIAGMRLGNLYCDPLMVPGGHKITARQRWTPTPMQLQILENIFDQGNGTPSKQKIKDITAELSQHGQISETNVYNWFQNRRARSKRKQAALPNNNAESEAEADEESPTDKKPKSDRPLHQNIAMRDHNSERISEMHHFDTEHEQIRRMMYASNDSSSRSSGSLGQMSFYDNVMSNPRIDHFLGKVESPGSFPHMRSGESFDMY
Assay: protein-binding microarray (RPBM); PBS, 2% BSA, 51.3 ng/ul salmon testes DNA, 50 uM zinc acetate, 200 nM TF, 25 C, 1 h; high values mean tight binding
Settings: protein: recombinant; tags: N-terminal polyhistidine and DsRed monomer fusion (pET32a); label: CyDye5-dUTP incorporated in the synthesized complementary strand; 3' TTTTT single-stranded linker to array surface; dsDNA, one strand shown
How it was run: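 For the binding signal, per-feature fluorescence intensity was read in arbitrary units on an Axon 4000B scanner. Before scanning, a 2% BSA-blocked custom Agilent array made double-stranded with Cy5-dUTP was washed after 1 h at 25 °C with 200 nM protein and 50 µM zinc acetate. The proteins were Ni–NTA-purified transcription factors with N-terminal polyhistidine and DsRed fusions, expressed in E. coli BL21-CodonPlus.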

With “CGCAATTGACATTTTATCACACGTTTAATCATTCATCTTACGGAGTCACCTAGTGCAG” as the sequence, how does the binding signal read?
The binding signal was 35700 fluorescence intensity (a.u.).

How did the binding signal turn out when “AGCTGTCCCGTGATTTGTTCGTATCTTCCAGATATGCAAACGGAGTCACCTAGTGCAG” was run?
The binding signal was 3850 fluorescence intensity (a.u.).

“ACTAAACAATTAAGCTCCCAAATCACATCACAAACACCCCCGGAGTCACCTAGTGCAG” was tested. Which binding signal did it give?
Its binding signal is 8520 fluorescence intensity (a.u.).

Which binding signal does the source give for “GTGATCTGATGAATGCATTTCGTGATTCCATTGCACTTGCCGGAGTCACCTAGTGCAG” here?
The binding signal was 3370 fluorescence intensity (a.u.).

How did the binding signal turn out when “TGGGATTTGTAATTTGTGGTGAAATGAGGAGCCTAATCCACGGAGTCACCTAGTGCAG” was run?
Its binding signal is 10500 fluorescence intensity (a.u.).

For “ATTCCTAAATTGCTCTACCCCTTGCTCAGAATCCTTGTTACGGAGTCACCTAGTGCAG”, which binding signal is on record?
Its binding signal is 4940 fluorescence intensity (a.u.).

Which binding signal does the source give for “TTATAAAGATTTAATTGCAACGAACATAATAGTGTAATCGCGGAGTCACCTAGTGCAG” here?
The binding signal was 15000 fluorescence intensity (a.u.).

“CATCTTCTTTGATTAGCGTGAAAATATAAAACACAAACATCGGAGTCACCTAGTGCAG” was tested. Which binding signal did it give?
Its binding signal is 12300 fluorescence intensity (a.u.).

How did the binding signal turn out when “GCAGATAATTGACTCCCCTGGCATTGACATGGCCTTCCCACGGAGTCACCTAGTGCAG” was run?
The binding signal was 39500 fluorescence intensity (a.u.).

How did the binding signal turn out when “TGTAATTTGTTCTTGTTATCATCAATCCCATATAAACTGGCGGAGTCACCTAGTGCAG” was run?
The binding signal was 22300 fluorescence intensity (a.u.).

For “AGCTAGTTAAATAGAGGATTAATAATCGAAACAGTGAAACCGGAGTCACCTAGTGCAG”, which binding signal is on record?
Its binding signal is 3470 fluorescence intensity (a.u.).

Which binding signal does the source give for “CCCAATTAACAGGCATGCACATTTGGGCTTGCAACACTGACGGAGTCACCTAGTGCAG” here?
The binding signal was 22200 fluorescence intensity (a.u.).

For “CAAATCAATATATTGCATGTGGATTATAAATGTTTGTGTGCGGAGTCACCTAGTGCAG”, which binding signal is on record?
Its binding signal is 3200 fluorescence intensity (a.u.).

With “GAGATTAACATATGAAGAATTGAAGAAACCGGCCAGTAAACGGAGTCACCTAGTGCAG” as the sequence, how does the binding signal read?
Its binding signal is 3340 fluorescence intensity (a.u.).

For “ACCATTAACAAATCAATCCGAGCATTTTCTTTCTTTTGATCGGAGTCACCTAGTGCAG”, which binding signal is on record?
Its binding signal is 11200 fluorescence intensity (a.u.).

How did the binding signal turn out when “GTAGAGATAGATAATATAATTTATTTCATATGGGTAGTCCCGGAGTCACCTAGTGCAG” was run?
Its binding signal is 12000 fluorescence intensity (a.u.).

How did the binding signal turn out when “TACATTATTACAGCGGTCTTAATTAATCAAGCCAAGGCAGCGGAGTCACCTAGTGCAG” was run?
The binding signal was 3650 fluorescence intensity (a.u.).

With “CTTAATTAATATATATTTGTGAAGACCTAACTTCGAGTCCCGGAGTCACCTAGTGCAG” as the sequence, how does the binding signal read?
Its binding signal is 37400 fluorescence intensity (a.u.).

For “TGGTTAGTTGATTTTATGATTTAGAGTAGAAGTTCGTTCGCGGAGTCACCTAGTGCAG”, which binding signal is on record?
Its binding signal is 10100 fluorescence intensity (a.u.).

With “AAGTAAACTGATCTGATCACGCGAGCTGGGCTAAAATGGACGGAGTCACCTAGTGCAG” as the sequence, how does the binding signal read?
Its binding signal is 5540 fluorescence intensity (a.u.).

With “AACACTGATTGCACATCAAGGTCCCCACTCAATGATAAACCGGAGTCACCTAGTGCAG” as the sequence, how does the binding signal read?
Its binding signal is 38600 fluorescence intensity (a.u.).

“AGTAATTTTGGTACAATTAATAAATAAATCTGATACCTCACGGAGTCACCTAGTGCAG” was tested. Which binding signal did it give?
The binding signal was 21200 fluorescence intensity (a.u.).

Which binding signal does the source give for “GGCTGATTATTTTAGACGTGTTTAGGGGTGAATTTGGATTCGGAGTCACCTAGTGCAG” here?
Its binding signal is 28400 fluorescence intensity (a.u.).

“GCCTAATTTATGCCTCATACCAAACCAGCCCATAAAATACCGGAGTCACCTAGTGCAG” was tested. Which binding signal did it give?
Its binding signal is 11400 fluorescence intensity (a.u.).

“TTGTAGCAAGATCCCAATCATAATAGATGATGGCAAATGCCGGAGTCACCTAGTGCAG” was tested. Which binding signal did it give?
The binding signal was 5460 fluorescence intensity (a.u.).

For “ATACTTGATTTAAAGCACGAGAAACGAGCCAACGACCGAACGGAGTCACCTAGTGCAG”, which binding signal is on record?
Its binding signal is 3630 fluorescence intensity (a.u.).

Which binding signal does the source give for “ATGAGCCTAACCATTTCTAGTGTTACTTACTCCATTTCAGCGGAGTCACCTAGTGCAG” here?
The binding signal was 64200 fluorescence intensity (a.u.).

For “GGTCAATAATTGAAGTATATATGTTACACTAATTATAAATCGGAGTCACCTAGTGCAG”, which binding signal is on record?
The binding signal was 27300 fluorescence intensity (a.u.).

For “CACCAATGATCAATTTGTCAATAATCTAGAACCTTCTTCTCGGAGTCACCTAGTGCAG”, which binding signal is on record?
Its binding signal is 16000 fluorescence intensity (a.u.).

Which binding signal does the source give for “TGTAATTATCAAGCTGTTCATGGGACAACACAAGCTTATACGGAGTCACCTAGTGCAG” here?
Its binding signal is 5130 fluorescence intensity (a.u.).

Which binding signal does the source give for “CTTAATTACTATTCCCTCCGTCATACAATATAAGAGATTTCGGAGTCACCTAGTGCAG” here?
The binding signal was 22500 fluorescence intensity (a.u.).

How did the binding signal turn out when “ATTTTCTCAATTTATCTCACTCATATAAACTCCAAATTGGCGGAGTCACCTAGTGCAG” was run?
The binding signal was 6170 fluorescence intensity (a.u.).

How did the binding signal turn out when “GATAATTACGTATATGGGTCACTCGCCTTACTCCACGTCGCGGAGTCACCTAGTGCAG” was run?
Its binding signal is 40500 fluorescence intensity (a.u.).

How did the binding signal turn out when “ACCAAATCAATCTAATCAATACCTATCGAAAGTTTGCTCACGGAGTCACCTAGTGCAG” was run?
Its binding signal is 21300 fluorescence intensity (a.u.).

How did the binding signal turn out when “TTGATTACTTGCATCTTCAGCTGACGCAACATATGCTACACGGAGTCACCTAGTGCAG” was run?
The binding signal was 4140 fluorescence intensity (a.u.).

Which binding signal does the source give for “ATTAATGAACTGTGACATTTCCTTAATTTCATTTTGCTCTCGGAGTCACCTAGTGCAG” here?
Its binding signal is 23800 fluorescence intensity (a.u.).

Which binding signal does the source give for “GATCAATTAATATGGAATTTAAAAGTTCAATTAATATGGACGGAGTCACCTAGTGCAG” here?
Its binding signal is 8910 fluorescence intensity (a.u.).

Which binding signal does the source give for “CCTAATTGCTACATGATTTGACAGTATAATACTACCGTAACGGAGTCACCTAGTGCAG” here?
The binding signal was 31400 fluorescence intensity (a.u.).

Which binding signal does the source give for “GTGAGTGACGAAATTAGAAATTATTAAAGCATGAGGCTAACGGAGTCACCTAGTGCAG” here?
Its binding signal is 13300 fluorescence intensity (a.u.).

How did the binding signal turn out when “AAGTTGATTACTTAAACTGATTGACAGGGAGGCGGTTGAACGGAGTCACCTAGTGCAG” was run?
Its binding signal is 56600 fluorescence intensity (a.u.).

“GTTGGTTGATTACATTTTGAATGCGTGGTTGAGATCGAGTCGGAGTCACCTAGTGCAG” was tested. Which binding signal did it give?
The binding signal was 25900 fluorescence intensity (a.u.).

For “AAGGCAAATCATATGATAGAATCAGTGGCTAACACTGTGCCGGAGTCACCTAGTGCAG”, which binding signal is on record?
Its binding signal is 6580 fluorescence intensity (a.u.).
